The other results are listed elsewhere or left out.
Legend:
Assay in all cases: glycan array binding signal (z-score within array); higher = stronger binding
Details in all cases: glycan notation: IUPAC condensed, linker removed
[1] = biological target: Gal3S(b1-4)Glc
Procedure, shortened: (§1)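 The binding signal is a Z-score computed within each array and averaged over linkers. Arrays of the same protein sequence at different concentrations or buffers were also averaged together. Data originate from 3228 arrays in the Consortium for Functional Glycomics database, kept only where the protein sequence was available.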

[2] = biological target: Gal3S(b1-4)Glc6S
Procedure, shortened: as §1

[3] = biological target: Gal3S(b1-4)GlcNAc
Procedure, shortened: as §1

[4] = biological target: Gal3S(b1-4)[Fuc(a1-3)]Glc6S
Procedure, shortened: as §1

[5] = biological target: Gal3S(b1-4)[Fuc(a1-3)]GlcNAc
Procedure, shortened: as §1

[6] = biological target: Gal3S(b1-4)[Fuc(a1-3)]GlcNAc6S
Procedure, shortened: as §1

[7] = biological target: Gal3S4S(b1-4)GlcNAc
Procedure, shortened: as §1

[8] = biological target: Gal3S6S(b1-4)GlcNAc
Procedure, shortened: as §1

[9] = biological target: Gal3S6S(b1-4)GlcNAc6S
Procedure, shortened: as §1

[10] = biological target: Gal4S(b1-4)GlcNAc
Procedure, shortened: as §1

[11] = biological target: Gal4S6S(b1-4)GlcNAc
Procedure, shortened: as §1

[12] = biological target: Gal6P(b1-4)GlcNAc
Procedure, shortened: as §1

[13] = biological target: Gal6S(b1-3)GlcNAc
Procedure, shortened: as §1

[14] = biological target: Gal6S(b1-3)GlcNAc6S
Procedure, shortened: as §1

[15] = biological target: Gal6S(b1-4)Glc
Procedure, shortened: as §1

[16] = biological target: Gal6S(b1-4)Glc6S
Procedure, shortened: as §1

[17] = biological target: Gal6S(b1-4)GlcNAc
Procedure, shortened: as §1

[18] = biological target: Gal6S(b1-4)GlcNAc6S
Procedure, shortened: as §1

[19] = biological target: GalNAc(a1-3)Gal
Procedure, shortened: as §1

[20] = biological target: GalNAc(a1-3)GalNAc
Procedure, shortened: as §1

[21] = biological target: GalNAc(a1-3)GalNAc(b1-3)Gal(a1-4)Gal(b1-4)Glc
Procedure, shortened: as §1

[22] = biological target: GalNAc(a1-3)GalNAc(b1-3)Gal(a1-4)Gal(b1-4)GlcNAc
Procedure, shortened: as §1

[23] = biological target: GalNAc(b1-3)Gal
Procedure, shortened: as §1

[24] = biological target: GalNAc(b1-3)Gal(a1-4)Gal(b1-4)GlcNAc
Procedure, shortened: as §1

[25] = biological target: GalNAc(b1-3)Gal(a1-4)Gal(b1-4)GlcNAc(b1-3)Gal(b1-4)Glc
Procedure, shortened: as §1

[26] = biological target: GalNAc(b1-3)Gal(a1-6)Gal(b1-4)Glc
Procedure, shortened: as §1

[27] = biological target: GalNAc(b1-3)GalNAc
Procedure, shortened: as §1

[28] = biological target: GalNAc(b1-3)GlcNAc
Procedure, shortened: as §1

[29] = biological target: GalNAc(b1-4)Gal(b1-4)Glc
Procedure, shortened: as §1

[30] = biological target: GalNAc(b1-4)GlcNAc
Procedure, shortened: as §1

[31] = biological target: GalNAc(b1-4)GlcNAc(b1-2)Man
Procedure, shortened: as §1

[32] = biological target: GalNAc(b1-4)GlcNAc(b1-2)Man(a1-3)[GalNAc(b1-4)GlcNAc(b1-2)Man(a1-6)]Man(b1-4)GlcNAc(b1-4)GlcNAc
Procedure, shortened: as §1

[33] = biological target: GalNAc(b1-4)GlcNAc(b1-3)GalNAc(b1-4)GlcNAc
Procedure, shortened: as §1

[34] = biological target: GalNAc(b1-4)GlcNAc6S
Procedure, shortened: as §1

[35] = biological target: GalNAc(b1-6)GalNAc
Procedure, shortened: as §1

[36] = biological target: GalNAc3S(b1-4)GlcNAc
Procedure, shortened: as §1

[37] = biological target: GalNAc3S(b1-4)GlcNAc3S
Procedure, shortened: as §1

[38] = biological target: GalNAc3S(b1-4)[Fuc(a1-3)]GlcNAc
Procedure, shortened: as §1

[39] = biological target: GalNAc4S6S(b1-4)GlcNAc
Procedure, shortened: as §1

[40] = biological target: GalNAc6S(b1-4)GlcNAc
Procedure, shortened: as §1

[41] = biological target: Glc(a1-4)Glc
Procedure, shortened: as §1

[42] = biological target: Glc(a1-4)Glc(a1-4)Glc(a1-4)Glc
Procedure, shortened: as §1

[43] = biological target: Glc(a1-6)Glc(a1-6)Glc
Procedure, shortened: as §1

[44] = biological target: Glc(a1-6)Glc(a1-6)Glc(a1-6)Glc
Procedure, shortened: as §1

[45] = biological target: Glc(b1-4)Glc
Procedure, shortened: as §1

B1: PX14375C-bth-509-28-509 (Bacteroides thetaiotaomicron) (protein)
chain: RSPQGQFTEDDNPNALVNGKIYNVYTMMRSFDITAGTPAIAIHYLRSEDSEKGSIPSDGSDVAEMYDDFLYTPTNGLLGSYWGKNYAIIYQCNDILDAIAEKETAGQTETEDIINKGEASFFRAYCYFNLVRAFGEVPLVTYKINDASEANIPKTTADKIYEQIDTDLKTAEESLPETWSTEYTGRLTWGAARSLHARTYMMRSDWDNMYKASTDVINKGLYNLKTPYNEIFTDDGENSGGSIFELQCTATAALPQSDVIGSQFCEVQGVRGAGQWDLGWGWHMATQLMADAYETGDPRKNATLLYFRKTDDEPITPENTNEPYGESPISPAMGAYFNKKAYTDPALRKEYTNKGFWVNIRLIRYSDVVLMAAEAANEKNIPGEAVDYLEMVRARARGTNTNILPKITTNDQGELREAIRHERRVELGLEPDRFYDLVRWGIASEVLHAAGKVNYQDKNALLPLPQSEIDKSKGVLVQNPDY
- glycan array binding signal (z-score) [1]: -0.207
- glycan array binding signal (z-score) [2]: -0.242
- glycan array binding signal (z-score) [3]: -0.113
- glycan array binding signal (z-score) [4]: 0.039
- glycan array binding signal (z-score) [5]: -0.345
- glycan array binding signal (z-score) [6]: -0.411
- glycan array binding signal (z-score) [7]: -0.33
- glycan array binding signal (z-score) [8]: -0.181
- glycan array binding signal (z-score) [9]: -0.243
- glycan array binding signal (z-score) [10]: -0.49
- glycan array binding signal (z-score) [11]: -0.448
- glycan array binding signal (z-score) [12]: -0.343
- glycan array binding signal (z-score) [13]: -0.297
- glycan array binding signal (z-score) [14]: 0.978
- glycan array binding signal (z-score) [15]: -0.018
- glycan array binding signal (z-score) [16]: -0.059
- glycan array binding signal (z-score) [17]: -0.076
- glycan array binding signal (z-score) [18]: -0.224
- glycan array binding signal (z-score) [19]: -0.02
- glycan array binding signal (z-score) [20]: 0.047
- glycan array binding signal (z-score) [21]: -0.305
- glycan array binding signal (z-score) [22]: -0.463
- glycan array binding signal (z-score) [23]: -0.121
- glycan array binding signal (z-score) [24]: -0.011
- glycan array binding signal (z-score) [25]: 0.244
- glycan array binding signal (z-score) [26]: -0.426
- glycan array binding signal (z-score) [27]: 1.2
- glycan array binding signal (z-score) [28]: -0.255
- glycan array binding signal (z-score) [29]: -0.326
- glycan array binding signal (z-score) [30]: 0.086
- glycan array binding signal (z-score) [31]: -0.066
- glycan array binding signal (z-score) [32]: -0.171
- glycan array binding signal (z-score) [33]: -0.228
- glycan array binding signal (z-score) [34]: -0.027
- glycan array binding signal (z-score) [35]: -0.334
- glycan array binding signal (z-score) [36]: -0.123
- glycan array binding signal (z-score) [37]: -0.308
- glycan array binding signal (z-score) [38]: -0.31
- glycan array binding signal (z-score) [39]: -0.328
- glycan array binding signal (z-score) [40]: -0.093
- glycan array binding signal (z-score) [41]: -0.365
- glycan array binding signal (z-score) [42]: -0.348
- glycan array binding signal (z-score) [43]: -0.336
- glycan array binding signal (z-score) [44]: -0.39
- glycan array binding signal (z-score) [45]: -0.346

From the supplement of paper PMC8728848
